Results taken from PubChem BioAssay AID720569 (National Center for Advancing Translational Sciences (NCATS), 2013).
Inconclusive results, whose numbers are uncertain, are shown with a selection of clear calls. A potency beside an inconclusive call is a rough fit, not a confirmed value. Calls of active or inactive are those of the source. Calls come from the whole dose curve; as a rule, active = well fitted inhibition curve with a large enough effect; inconclusive = small, poorly fitted or top-dose-only effect; inactive = no such curve, though single readings can be large or run the other way.

System: pyruvate kinase (Trypanosoma brucei)
Test: qHTS of Trypanosoma Brucei Inhibitors: Confirmatory Assay for Cherry-picked Compounds; note: nearly all actives have a fitted effect of over 70% in size
Details: recombinant TbPYK, Kinase-Glo ATP luminescence; series mostly up to 76.9 µM
In short: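 TbPYK in 50 mM TEA pH 7.2, 100 mM KCl, 10 mM MgCl2, 0.05% BSA, 0.01% Tween-20; reaction started with ADP (130 uM final), 45 min at room temperature. ATP formed read by Kinase-Glo Plus luminescence; concentration-effect curves fitted.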
Potency is the fitted concentration of half-maximal effect; tags give direction and shape of the fitted curve.

Potency, active:
COC(CNC(=O)c1ccc(Cn2c(=S)[nH]c3cc4c(cc3c2=O)OCO4)cc1)OC 2 µM
CCCC(C)c1nnc(NC(=O)c2cc(C(=O)OC)cc([N+](=O)[O-])c2)s1 (configuration not stated) 3.55 µM
CCOC(=O)C1=C(C)c2ccccc2N(C(=O)OC)C1(C)C(=O)OCC (configuration not stated) 31.6 µM

Potency, inconclusive:
O=C1N/C(=C/c2ccc(N3CCOCC3)o2)C(=O)N1c1ccccc1 25.1 µM [inhibitor, partial curve]
N#C/C(=C/c1ccc(N2CCOCC2)o1)c1ccc(Br)cc1 28.2 µM [inhibitor, single point]
O=C(NCC1CCCO1)c1sc(=S)n2c1[nH]c(=O)c1ccc(C(=O)N3CCCCC3)cc12 (configuration not stated) 28.2 µM [inhibitor, single point]
CCN(CC)c1ccc2nc3ccc(N)cc3[n+](-c3ccccc3)c2c1 22.4 µM [inhibitor, partial curve]
N#CC1=C2SCN(Cc3ccccc3)CN2C(=O)CC1c1ccc2c(c1)OCO2 (configuration not stated) 11.2 µM [inhibitor, partial curve, poor fit]
CC(=O)Nc1ccc(S(=O)(=O)NNc2cccc(C)c2)cc1 35.5 µM [inhibitor, partial curve]
O=C(NC(=S)NNC(=O)c1ccccc1[N+](=O)[O-])c1ccc(Br)cc1 35.5 µM [inhibitor, single point]
Cc1ccccc1NC(=O)c1sc2nc(N3CCOCC3)c3c(c2c1N)CCCC3 4.47 µM [inhibitor, partial curve]
Clc1cccc(Cc2c(-c3ccco3)nc3ccc(Br)cn23)c1 28.2 µM [inhibitor, single point]
Cc1nc2sc(C(=O)O)c(N)c2c2c1COC(C)(C)C2 22.4 µM [inhibitor, partial curve, poor fit]
CCCN1C(=O)S/C(=C\c2ccc(N3CCOCC3)o2)C1=O 28.2 µM [inhibitor, single point]
Nc1c(C(=O)Nc2ccc(Cl)cc2)sc2nc(N3CCOCC3)c3c(c12)CCCC3 15.8 µM [inhibitor, partial curve]
COc1cccc(C(=O)CSc2nnc(CNS(C)(=O)=O)n2-c2ccc(C)cc2)c1 11.2 µM [inhibitor, partial curve, poor fit]
N#Cc1c(NC(NC(=O)c2ccco2)C(=O)c2ccccc2)sc2c1CCCC2 (configuration not stated) 2.82 µM [inhibitor, full curve]
COc1ccc(C(=O)Nc2ccc(N3CCCC3)cc2)cc1OC 15.8 µM [inhibitor, partial curve]
Cn1c(SCC(=O)NC2CCCCC2)nnc1-c1cccc(N)c1 35.5 µM [inhibitor, partial curve, poor fit]

Potency, inactive:
CC(C)Sc1nc(N2CCOCC2)c2c(c1C#N)CC(C)(C)N(C)C2
C/C(Cn1nc([N+](=O)[O-])cc1C)=N\NC(=O)COc1c(Cl)cc(Cl)cc1Cl
c1cncc(Nc2nc(-c3cccs3)cs2)c1
